Assay results reported in publication PMC4336329 (PLoS ONE, 2015).
The whole screen tested about 310,000 compounds, of which about 2,200 (0.71%) showed an effect of 50% or more. The effect is printed as a negative number. This is one part of the list.

target: human ether-à-go-go-related gene (hERG) potassium channel (human, UniProt Q12809); assay: primary screen, population patch clamp on CHO cells stably expressing hERG
Sequence (Q12809 whole entry, looked up): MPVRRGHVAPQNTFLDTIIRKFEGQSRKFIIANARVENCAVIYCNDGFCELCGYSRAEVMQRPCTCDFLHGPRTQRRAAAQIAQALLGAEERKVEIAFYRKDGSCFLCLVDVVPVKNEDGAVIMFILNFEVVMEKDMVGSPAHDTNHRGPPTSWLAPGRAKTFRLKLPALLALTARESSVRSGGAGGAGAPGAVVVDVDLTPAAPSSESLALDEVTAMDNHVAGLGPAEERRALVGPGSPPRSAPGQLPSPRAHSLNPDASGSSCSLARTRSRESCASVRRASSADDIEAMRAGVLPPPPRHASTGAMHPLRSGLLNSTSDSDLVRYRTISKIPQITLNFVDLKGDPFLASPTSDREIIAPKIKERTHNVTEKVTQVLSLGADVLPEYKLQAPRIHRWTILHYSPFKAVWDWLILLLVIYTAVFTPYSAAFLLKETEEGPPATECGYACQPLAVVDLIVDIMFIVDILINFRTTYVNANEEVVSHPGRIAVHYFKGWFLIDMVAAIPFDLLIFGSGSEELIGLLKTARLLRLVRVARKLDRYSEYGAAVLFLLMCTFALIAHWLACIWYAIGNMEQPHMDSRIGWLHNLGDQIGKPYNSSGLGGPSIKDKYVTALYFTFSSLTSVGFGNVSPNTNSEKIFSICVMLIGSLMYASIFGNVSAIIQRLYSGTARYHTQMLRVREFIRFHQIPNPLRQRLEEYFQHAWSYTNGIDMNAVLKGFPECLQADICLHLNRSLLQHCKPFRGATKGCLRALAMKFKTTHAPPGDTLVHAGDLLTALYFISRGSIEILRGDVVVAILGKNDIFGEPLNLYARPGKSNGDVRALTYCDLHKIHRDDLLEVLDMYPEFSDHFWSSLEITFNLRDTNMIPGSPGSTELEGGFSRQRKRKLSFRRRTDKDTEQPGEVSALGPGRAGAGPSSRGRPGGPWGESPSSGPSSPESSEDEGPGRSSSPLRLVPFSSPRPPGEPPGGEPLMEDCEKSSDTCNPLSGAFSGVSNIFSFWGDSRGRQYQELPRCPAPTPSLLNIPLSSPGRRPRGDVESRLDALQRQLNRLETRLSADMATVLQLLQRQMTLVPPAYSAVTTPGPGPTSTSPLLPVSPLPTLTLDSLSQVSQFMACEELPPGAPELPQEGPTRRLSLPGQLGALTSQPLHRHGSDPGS

| Compound | hERG current change (%, negative = inhibition) at 1uM |
| --- | --- |
| O=C(CCc1ccccc1Cl)Nc1cccc(S(=O)(=O)N2CCCC2)c1 | -2.05% |
| COC(=O)c1sccc1NC(=O)c1ccccc1[N+](=O)[O-] | 7.08% |
| Clc1cccc(/C=N/N2CCN(Cc3ccccc3)CC2)c1 | 14.1% |
| Cc1nn(-c2ccccc2)c(Cl)c1/C=N/NC(=O)c1ccccc1NS(=O)(=O)c1cccs1 | 11.2% |
| CCn1c(CC(=O)Nc2ccc(C)cc2)n[nH]c1=S | 13.4% |
| COc1ccc(NC(=O)NCc2ccncc2)cc1 | 12.2% |
| CCCCN1CC[C@H]2C=CC[C@@H](C(=O)NCCc3ccccc3)[C@H]2C1=O | 8.74% |
| COCC(C)n1c(C)cc(C(=O)CSc2nnnn2-c2ccc(O)cc2)c1C (stereo not drawn) | 5.83% |
| CCn1cc(C(=O)N[C@@H](CCSC)C(=O)NC(C)(C)CO)c(=O)c2cc3c(cc21)OCO3 | 17.4% |
| CCOC(=O)N1CCN(S(=O)(=O)N2CCCC(C(=O)NCCCN3CCCCC3)C2)CC1 (stereo not drawn) | 8.07% |
| O=C(NCCc1cnc[nH]1)Nc1cccc(C(F)(F)F)c1 | 16% |
| C/C(=N\NC(=O)C1CCCC1)c1ccc(Cl)c(Cl)c1 | 8.97% |
| Cc1[nH]c2ccccc2c1C(=O)Cn1c(=O)oc2ccccc21 | 2.08% |
| CCOc1ccccc1NC(=O)CSc1nnc(NC(=O)c2ccco2)s1 | 20.2% |
| O=C(COC(=O)c1ccc(F)cc1Cl)NC1CCS(=O)(=O)C1 (stereo not drawn) | 4.8% |
| O=C(NCC(c1ccc(F)cc1)N1CCOCC1)c1ccco1 (stereo not drawn) | -5.93% |
| CCOC(=O)c1cccc(NC(=O)C(C)N2C(=O)c3ccccc3C2=O)c1 (stereo not drawn) | -3.2% |
| Cc1cc(C)n(C(CC(=O)N2CCc3ccccc3C2)C(=O)O)n1 (stereo not drawn) | -0.102% |
| COC(=O)C(C)n1cnc2c(nnn2-c2ccc(OC)cc2)c1=O (stereo not drawn) | 13.3% |

| Compound | hERG current change (%, negative = inhibition) at 1uM |
| --- | --- |
| COc1ccc(OC)c(S(=O)(=O)N2CCN(C(=O)CCc3ccccc3)CC2)c1 | 14.1% |
| COCCNC(=O)CSc1nc2sc(C)c(C)c2c(=O)n1-c1ccccc1 | 5.79% |
| CCCOc1ccc(/C=C/C(=O)NC2CCCCC2)cc1 | 12.6% |
| CN(C)c1nnnn1-c1cccc(Oc2ncc(C(F)(F)F)cc2Cl)c1 | 11% |
| Fc1ccc(N2CCN(c3nc(CN4CCOCC4)nc4scc(-c5ccccc5)c34)CC2)cc1 | 6.83% |
| COC(=O)c1ccccc1-c1ccc(/C=N/Nc2nc(N3CCCC3)nc(N3CCCC3)n2)o1 | 14% |
| CN(c1ccc(C(=O)NC2CC3CCC2C3)cc1)S(C)(=O)=O (stereo not drawn) | 3.94% |
| CN(NC1OC(=O)c2ccccc21)c1ccccc1[N+](=O)[O-] (stereo not drawn) | 12.4% |
| O=C(Cn1cnc2ccccc21)NCc1ccccc1 | 5.93% |
| CSc1cccc(NC(=O)OC2CCCCCCCCCCC2)c1 | 12.7% |
| CN(CCC#N)C(=O)Cn1nc(Cc2ccncc2)c2ccccc2c1=O | 7.06% |
| Cn1c(SCC(=O)Nc2cccc(NC(=O)c3cccs3)c2)nnc1-c1ccncc1 | -0.358% |
| CCOC(=O)c1sc2nc(CSc3nc4ccccc4n3CC)[nH]c(=O)c2c1C | 10.2% |
| COC(=O)c1nc(NC(=O)c2ccccc2)n[nH]1 | 9.34% |
| O=C1S/C(=C\C=C\c2ccco2)C(=O)N1c1ccccc1 | 7.64% |
| COC(=O)[C@H](CCSC)NC(=O)Nc1cccc(C)c1C | 11% |
| COCCN1C(=O)N(c2cccc(OC)c2)C(=O)C1CC(=O)Nc1cccc(F)c1 (stereo not drawn) | 15.8% |
| COc1ccc2c(Cl)c(C(=O)N/N=C3\CCCC(=O)C3)sc2c1 | 5.11% |
| Cc1sc2ncnc(Sc3nnnn3-c3ccccc3)c2c1C | 6.29% |

| Compound | hERG current change (%, negative = inhibition) at 1uM |
| --- | --- |
| Cn1c(=O)c2c(-c3ccccc3F)c3c(nc2n(C)c1=O)-c1ccccc1C3O (stereo not drawn) | -4.85% |
| COc1ccccc1NC(=O)C(C)N1C(=O)c2ccccc2C1=O (stereo not drawn) | 19.1% |
| Cc1ccnc(NC(=O)c2ccc(C(=O)c3ccccc3)cc2)c1 | 5.73% |
| Cn1cnnc1Sc1cc(N2CCN(S(=O)(=O)c3ccccc3)CC2)ccc1[N+](=O)[O-] | -5.16% |
| CC(=O)O/N=C/c1c(NCc2ccccc2)nc2c(C)cccn2c1=O | 2.4% |
| Cc1ccccc1NC(=O)/C(=C/c1ccco1)c1ccccc1 | 11% |
| CC(C)(C)c1ccc(OCC(=O)Nc2ccc(C(=O)Nc3ccccc3C(=O)O)cc2)cc1 | 5.21% |
| CC(C)c1ccc(-c2nnc(SCC(=O)NC3CC3)n2C)cc1 | 4.13% |
| COCCn1c(Cc2ccccc2)nnc1SC(C)C(=O)NC1CC1 (stereo not drawn) | -2.23% |
| COc1ccccc1CP(=O)(c1ccccc1)c1ccccc1 | 1.95% |
| COc1cccc(/C=C(\CC(=O)O)c2nc3ccccc3s2)c1 | 15% |
| O=S(=O)(Nc1nc2ccccc2nc1Cl)c1ccc(F)cc1 | 8.24% |
| O=C(CSc1nnnn1-c1ccc2c(c1)OCO2)NCc1cccs1 | -1.56% |
| OCCC1CN(Cc2ccon2)CCN1CCc1ccccc1 (stereo not drawn) | 5.92% |
| O=C(O)C(=O)O.OC1(c2ccccc2)CCNC2CCCCC21 (stereo not drawn) | 7.42% |
| Cc1ccc(NC(=O)COC(=O)COc2ccc3ccc(=O)oc3c2)cc1[N+](=O)[O-] | -0.0259% |
| COc1ccc2cc(Br)ccc2c1CC(=O)NC1CC(C)(C)NC(C)(C)C1 | -2.65% |
| CCOc1ccc(NC(=O)NCc2cccn2C)cc1 | 10.4% |
| Cc1cccc(C(=O)NCC(=O)OCc2cc(=O)n3ccsc3n2)c1 | 11.1% |
